From PubChem BioAssay AID463173 (ICCB-Longwood Screening Facility, Harvard Medical School, 2010)
Among all 52,000 compounds or so, about 4,300 (8.3%) were called active. Cut-off read from the data, not from the text of the source: active = survival mostly below about 52% (no sharp cut-off); inactive = mostly above about 56%. This is one part of the list.

system: DeltatarO mutant; assay: growth inhibition of S. aureus wild type versus tarO mutant, primary screen, teichoic acid synthesis inhibitors, RN4220, OD600 (AID 463173); conditions: OD600, 18 h, stronger effect = lower value, screened at 18.75 µg/mL (by protocol)

**Q.** For `COc1ccccc1C(=O)Nc1ccc(NC(=O)c2ccccc2)nc1`, which survival is on record?
**A.** inactive: 92%

**Q.** Which survival does the source give for `CCc1c(C)nc(SCC(=O)Nc2ccc3c(c2)OCCO3)[nH]c1=O` here?
**A.** inactive: 69%

**Q.** `COc1ccc(-c2nc3nc(C)cc(C)n3c2Nc2c(C)cccc2C)cc1` was tested. Which survival did it give?
**A.** inactive: 53%

**Q.** For `COc1ccccc1CNC(=O)C1(c2cccs2)CCOCC1`, which survival is on record?
**A.** inactive: 75%

**Q.** `N/C(=N\OC(=O)c1ccccc1)c1cccnc1` was tested. Which survival did it give?
**A.** inactive: 87%

**Q.** With `COc1ccc(NC(=O)CCc2c(C)nc3c(c2C)c(=O)n(C)c(=O)n3C)c(OC)c1` as the compound, how does the survival read?
**A.** inactive: 100%

**Q.** How did the survival turn out when `CCc1ccccc1NC(=O)Cn1nc2c3cc(F)ccc3n(Cc3cccc(C)c3)cc-2c1=O` was run?
**A.** inactive: 84%

**Q.** For `O=C(COc1ccccc1F)Nc1ccc2nc(SCC(=O)N3CCc4ccccc43)sc2c1`, which survival is on record?
**A.** inactive: 61%

**Q.** With `O=S(=O)(c1ccc2ccccc2c1)N1CCCCCC1` as the compound, how does the survival read?
**A.** inactive: 95%

**Q.** With `CCOC(=O)c1c(NC(=O)c2cc(-c3ccccc3OC)on2)sc(C)c1C` as the compound, how does the survival read?
**A.** inactive: 61%

**Q.** With `Cc1cc(C)cc(OCCSc2nc3ccc(NC(=O)c4ccc5c(c4)OCO5)cc3s2)c1` as the compound, how does the survival read?
**A.** inactive: 64%

**Q.** How did the survival turn out when `Oc1ccccc1-c1nc(-c2cccs2)c(-c2cccs2)[nH]1` was run?
**A.** active: 0%

**Q.** With `O=C(COc1ccccc1Cl)Nc1ccc(OCc2cc(=O)n3ccsc3n2)cc1` as the compound, how does the survival read?
**A.** inactive: 82%

**Q.** Which survival does the source give for `CCc1ccc(OCC(=O)Nc2ccc3c(c2)c2ccccc2n3CC)cc1` here?
**A.** inactive: 51%

**Q.** With `N#Cc1c[nH]n2c(NC3CCCCC3)c(-c3ccc(F)cc3)nc12` as the compound, how does the survival read?
**A.** inactive: 53%

**Q.** Which survival does the source give for `Cc1cccc(-n2ccnc2SCC(=O)Nc2cccc3ccccc23)c1` here?
**A.** inactive: 95%

**Q.** Which survival does the source give for `CCOc1cc(C2c3c(-c4cc(C)ccc4O)n[nH]c3C(=O)N2CCCOC(C)C)ccc1O` (stereo unspecified) here?
**A.** inactive: 90%

**Q.** How did the survival turn out when `CCn1ccc2cc(S(=O)(=O)N3CCCN(C(=O)Nc4ccccc4F)CC3)ccc21` was run?
**A.** inactive: 93%

**Q.** Which survival does the source give for `O=C(COC(=O)c1cc(-c2cccs2)nc2ccccc12)c1ccc(F)cc1` here?
**A.** inactive: 51%

**Q.** `O=C(CSc1nnc(-c2ccc3c(c2)OCO3)o1)Oc1ccccc1` was tested. Which survival did it give?
**A.** inactive: 87%

**Q.** With `COc1cccc(Cn2c(SCC(=O)N3CCN(c4ccc(F)cc4)CC3)nc3ccccc32)c1` as the compound, how does the survival read?
**A.** inactive: 66%

**Q.** How did the survival turn out when `COc1ccccc1NC(=O)CSc1ncc2c(n1)-c1ccccc1N(Cc1ccccc1C)S2(=O)=O` was run?
**A.** inactive: 101%

**Q.** Which survival does the source give for `Cc1ccc(CN(C(=O)c2ccc(C(C)(C)C)cc2)c2ccccn2)o1` here?
**A.** inactive: 53%

**Q.** For `Cc1nonc1C(=O)NCC(=O)O`, which survival is on record?
**A.** inactive: 94%

**Q.** How did the survival turn out when `CCOc1ccccc1CNC(=O)c1sc2ncccc2c1-n1cccc1` was run?
**A.** inactive: 101%

**Q.** How did the survival turn out when `CC(C)CC(=O)Nc1ccc2nc(SCC(=O)N3CCc4ccccc43)sc2c1` was run?
**A.** inactive: 102%
